# Measured values reported in the supplement of paper PMC8728848.
# Some of the results follow.
# B1: PX9937A-bvu-521-23-521 (Bacteroides vulgatus) (protein)
# chain: LDLAPEDYYGAGNFWKEASQPKAFMLGLHAQLRSYYDMFYTLGELRGGTQRVGTSSLNTSLNYADIRSQNISEDIPGISNWNGLYSPIMQVNHFIQEVENGCTFLDDATRSRYLGQAYGMRALYYFMLYRTFGGVPLITKVDILDGKPSADKFYVERATPEATMEFIKADINKSENYFGNNTSFDAYDWSRYATLMLKAEIYMWAAKVSITGFTATGATDLQTAKTALSGIIGHFELMDNFASIFSCDNKKNTEIIFAMPFIEGEASNDGGRFLYQDAVFLGQAYGRNGKVIEKDTLNLKGTGGVFRDEYTEDFWKTFKEGDSRRDATFMEYYMKNDNGTLSEFGCVMKKRIGTINSNDNRIYISDIPVYRYADALLMMAEIENGLNNPCASYINEVRKRAYGDTFEENKYTEGSYAENELAILQERDKEFVSEGKRWFDVLRMHDASGRSLVFSANANYPGTNPILGTEEAYKMLWPVNIGTLNVNPLLTQTPGYGKK
# Assays:
# Experiment in all cases: glycan array binding signal (z-score within array); higher = stronger binding
# Details in all cases: glycan notation: IUPAC condensed, linker removed
# [1] = biological target: Gal(a1-3)[Gal(a1-4)]Gal(b1-4)GlcNAc
# In short: (§1)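 Glycan array data came from 3228 arrays in the Consortium for Functional Glycomics database, and only arrays with an available protein sequence were kept. Glycan names were put into IUPAC-condensed notation, and columns mapping to the same glycan were averaged. The binding signal is a within-array Z-score, averaged across arrays of one protein sequence run at different concentrations or buffers and across linkers. A negative Z-score can be read as non-binding.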
# [2] = biological target: Gal(a1-4)Gal(b1-3)GlcNAc(b1-2)Man(a1-3)[Gal(a1-4)Gal(b1-3)GlcNAc(b1-2)Man(a1-6)]Man(b1-4)GlcNAc(b1-4)GlcNAc
# In short: as §1
# [3] = biological target: Gal(a1-4)Gal(b1-4)Glc
# In short: as §1
# [4] = biological target: Gal(a1-4)Gal(b1-4)GlcNAc
# In short: as §1
# [5] = biological target: Gal(a1-4)Gal(b1-4)GlcNAc(b1-2)Man(a1-3)[Gal(a1-4)Gal(b1-4)GlcNAc(b1-2)Man(a1-6)]Man(b1-4)GlcNAc(b1-4)GlcNAc
# In short: as §1
# [6] = biological target: Gal(a1-4)Gal(b1-4)GlcNAc(b1-3)Gal(b1-4)Glc
# In short: as §1
# [7] = biological target: Gal(a1-4)GlcNAc
# In short: as §1
# [8] = biological target: Gal(a1-6)Glc
# In short: as §1
# [9] = biological target: Gal(b1-2)Gal
# In short: as §1
# [10] = biological target: Gal(b1-3)Gal
# In short: as §1
# [11] = biological target: Gal(b1-3)Gal(b1-4)GlcNAc
# In short: as §1
# [12] = biological target: Gal(b1-3)GalNAc
# In short: as §1
# [13] = biological target: Gal(b1-3)GalNAc(a1-3)[Fuc(a1-2)]Gal(b1-4)Glc
# In short: as §1
# [14] = biological target: Gal(b1-3)GalNAc(a1-3)[Fuc(a1-2)]Gal(b1-4)GlcNAc
# In short: as §1
# [15] = biological target: Gal(b1-3)GalNAc(b1-3)Gal
# In short: as §1
# [16] = biological target: Gal(b1-3)GalNAc(b1-3)Gal(a1-4)Gal(b1-4)Glc
# In short: as §1
# [17] = biological target: Gal(b1-3)GalNAc(b1-4)Gal(b1-4)Glc
# In short: as §1
# [18] = biological target: Gal(b1-3)GalNAc(b1-4)[Neu5Ac(a2-3)]Gal(b1-4)Glc
# In short: as §1
# [19] = biological target: Gal(b1-3)GlcNAc
# In short: as §1
# [20] = biological target: Gal(b1-3)GlcNAc(a1-3)Gal(b1-4)GlcNAc
# In short: as §1
# [21] = biological target: Gal(b1-3)GlcNAc(a1-6)Gal(b1-4)GlcNAc
# In short: as §1
# [22] = biological target: Gal(b1-3)GlcNAc(b1-2)Man
# In short: as §1
# [23] = biological target: Gal(b1-3)GlcNAc(b1-2)Man(a1-3)[Gal(b1-3)GlcNAc(b1-2)Man(a1-6)]Man(b1-4)GlcNAc(b1-4)GlcNAc
# In short: as §1
# [24] = biological target: Gal(b1-3)GlcNAc(b1-2)Man(a1-3)[Gal(b1-3)GlcNAc(b1-2)Man(a1-6)]Man(b1-4)GlcNAc(b1-4)[Fuc(a1-6)]GlcNAc
# In short: as §1
# [25] = biological target: Gal(b1-3)GlcNAc(b1-2)Man(a1-3)[GlcNAc(b1-4)][Gal(b1-3)GlcNAc(b1-2)Man(a1-6)]Man(b1-4)GlcNAc(b1-4)GlcNAc
# In short: as §1
# [26] = biological target: Gal(b1-3)GlcNAc(b1-2)[Gal(b1-3)GlcNAc(b1-6)]Man(a1-6)[Gal(b1-3)GlcNAc(b1-2)Man(a1-3)]Man(b1-4)GlcNAc(b1-4)GlcNAc
# In short: as §1
# [27] = biological target: Gal(b1-3)GlcNAc(b1-3)Gal(b1-3)GlcNAc
# In short: as §1
# [28] = biological target: Gal(b1-3)GlcNAc(b1-3)Gal(b1-4)Glc
# In short: as §1
# [29] = biological target: Gal(b1-3)GlcNAc(b1-3)Gal(b1-4)GlcNAc
# In short: as §1
# [30] = biological target: Gal(b1-3)GlcNAc(b1-3)Gal(b1-4)GlcNAc(b1-2)Man(a1-3)[Gal(b1-3)GlcNAc(b1-3)Gal(b1-4)GlcNAc(b1-2)Man(a1-6)]Man(b1-4)GlcNAc(b1-4)GlcNAc
# In short: as §1
# [31] = biological target: Gal(b1-3)GlcNAc(b1-3)Gal(b1-4)GlcNAc(b1-2)[Gal(b1-3)GlcNAc(b1-3)Gal(b1-4)GlcNAc(b1-6)]Man(a1-6)[Gal(b1-3)GlcNAc(b1-3)Gal(b1-4)GlcNAc(b1-2)Man(a1-3)]Man(b1-4)GlcNAc(b1-4)[Fuc(a1-6)]GlcNAc
# In short: as §1
# [32] = biological target: Gal(b1-3)GlcNAc(b1-3)Gal(b1-4)GlcNAc(b1-3)Gal(b1-4)GlcNAc(b1-2)[Gal(b1-3)GlcNAc(b1-3)Gal(b1-4)GlcNAc(b1-3)Gal(b1-4)GlcNAc(b1-6)]Man(a1-6)[Gal(b1-3)GlcNAc(b1-3)Gal(b1-4)GlcNAc(b1-3)Gal(b1-4)GlcNAc(b1-2)Man(a1-3)]Man(b1-4)GlcNAc(b1-4)[Fuc(a1-6)]GlcNAc
# In short: as §1
# [33] = biological target: Gal(b1-3)GlcNAc(b1-3)Gal(b1-4)GlcNAc(b1-6)[Gal(b1-3)GlcNAc(b1-3)]Gal(b1-4)Glc
# In short: as §1
# [34] = biological target: Gal(b1-3)GlcNAc(b1-3)Gal(b1-4)[Fuc(a1-3)]GlcNAc
# In short: as §1
# [35] = biological target: Gal(b1-3)GlcNAc(b1-3)Gal(b1-4)[Fuc(a1-3)]GlcNAc(b1-6)[Gal(b1-3)GlcNAc(b1-3)]Gal(b1-4)Glc
# In short: as §1
# [36] = biological target: Gal(b1-3)GlcNAc(b1-3)GalNAc
# In short: as §1
# [37] = biological target: Gal(b1-3)GlcNAc(b1-6)Gal(b1-4)GlcNAc
# In short: as §1
# [38] = biological target: Gal(b1-3)GlcNAc(b1-6)GalNAc
# In short: as §1
binder,measurement,setting,value
B1,glycan array binding signal (z-score),[1],2.4
same,glycan array binding signal (z-score),[2],-0.165
same,glycan array binding signal (z-score),[3],0.404
same,glycan array binding signal (z-score),[4],0.696
same,glycan array binding signal (z-score),[5],-0.078
same,glycan array binding signal (z-score),[6],-0.51
same,glycan array binding signal (z-score),[7],-0.194
same,glycan array binding signal (z-score),[8],-0.448
same,glycan array binding signal (z-score),[9],-0.195
same,glycan array binding signal (z-score),[10],-0.259
same,glycan array binding signal (z-score),[11],-0.181
same,glycan array binding signal (z-score),[12],-0.234
same,glycan array binding signal (z-score),[13],0.538
same,glycan array binding signal (z-score),[14],-0.214
same,glycan array binding signal (z-score),[15],0.877
same,glycan array binding signal (z-score),[16],0.189
same,glycan array binding signal (z-score),[17],-0.217
same,glycan array binding signal (z-score),[18],1.47
same,glycan array binding signal (z-score),[19],-0.312
same,glycan array binding signal (z-score),[20],-0.721
same,glycan array binding signal (z-score),[21],-0.624
same,glycan array binding signal (z-score),[22],-0.189
same,glycan array binding signal (z-score),[23],0.127
same,glycan array binding signal (z-score),[24],-0.366
same,glycan array binding signal (z-score),[25],0.011
same,glycan array binding signal (z-score),[26],-0.357
same,glycan array binding signal (z-score),[27],-0.411
same,glycan array binding signal (z-score),[28],0.542
same,glycan array binding signal (z-score),[29],-0.307
same,glycan array binding signal (z-score),[30],-0.279
same,glycan array binding signal (z-score),[31],0.311
same,glycan array binding signal (z-score),[32],-0.1
same,glycan array binding signal (z-score),[33],0.043
same,glycan array binding signal (z-score),[34],-0.451
same,glycan array binding signal (z-score),[35],0.151
same,glycan array binding signal (z-score),[36],0.063
same,glycan array binding signal (z-score),[37],-0.028
same,glycan array binding signal (z-score),[38],-0.407
